This is one part of the list. The source does not settle which construct or isoform was used.

The source of these data is PMC5892938.

The target of this assay is GST-SBP-ILF3 (Homo sapiens) (UniProt Q12906). As to the kind of experiment: targeted RNA Bind-n-Seq. The settings on record: RBNS binding buffer: 25 mM Tris pH 7.5, 150 mM KCl, 3 mM MgCl2, 0.1% Tween, 0.5 mg/mL BSA, 1 mM DTT; 27 nM protein, 750 pM RNA pool; temperature not stated; high values mean tight binding; sequences stand for … in GGGUAAAAGCGAGGUGAA…CGGGACAAGUAUUAUGGG
As to “UUUUUUUUUUGAGAGGGUAUCCUUCUCCAG [tttttgagapaired]”, the binding signal (log2 fold change) is 0.0112. The same measure for “UUUUUUUUUUGAGACGGGAGCCGUCUUCUG [tttttgagapaired]”: 0.438. With “UUUUUUUUUUGAGACGGAACCCGUCUCCAG [tttttgagapaired]”, the binding signal (log2 fold change) worked out at 0.343. Consider “GUGUGUUGUGUUGGCCUCUAACACAGCGCG [gtspaired]”, for which the binding signal (log2 fold change) was -0.734. To “UUUUUUUUUUGAGACGGAGACCGUCUUCUG [tttttgagapaired]” belongs 0.716. Take “UUUUUUUUUUGAGAUGGGUGCCAUUUCCGG [tttttgagapaired]”: the binding signal (log2 fold change) amounted to 0.727. To “UUUUUUUUUUGAGACUGGUACAGUCUCCAG [tttttgagapaired]” belongs 0.361; to “GUGGUGUGUGUUGGAGUCUAACACACAUCA [gtspaired]”, -0.581; to “UUUUUUUUUUGAGAUCGUAACGAUCUCCUA [tttttgagapaired]”, 0.205. The same measure for “UUUUUUUUUUGAGAACGGGUCGUUCUCCAG [tttttgagapaired]”: 0.411; for “UUUUUUUUUUGAGACUGAGGCAGUUUCCUA [tttttgagapaired]”: 0.572; for “GGUGGUUGUGUUGGAGCCUAACACAGCUAC [gtspaired]”: -0.701. “UUUUUUUUUUGAGAGCGAACCGCUCUCCUG [tttttgagapaired]”: the binding signal (log2 fold change) came to 0.0868. To “GUGUGGUGUGUUGGCAUCUAACACACUACG [gtspaired]” belongs -0.779; to “UUUUUUUUUUGAGAUCGGGACGAUCUUCUA [tttttgagapaired]”, 0.321. To “UUUUUUUUUUGAGAGGGCUCCCCUCUCCGG [tttttgagapaired]” belongs 0.502; to “GGUGUGUGUGUUGGUCCCUAACACAUACGC [gtspaired]”, -0.383. To “UUUUUUUUUUGAGAUCGGAGCGAUCUCCGG [tttttgagapaired]” belongs 0.457; to “UUUUUUUUUUGAGAGGGCUCCCCUUUCCGG [tttttgagapaired]”, 0.689; to “UUUUUUUUUUGAGACGGAUACCGUCUCCUA [tttttgagapaired]”, 0.0795. On to “GUGUGUGGUGUUGGUGUCUAACACCGCGCG [gtspaired]”, for which the binding signal (log2 fold change) is -0.675. The same measure for “UUUUUUUUUUGAGAGGGGCGCCCUCUCCUA [tttttgagapaired]”: 0.667; for “UUUUUUUUUUGAGACUGGGACAGUCUCCGG [tttttgagapaired]”: 0.237; for “UUCCUUCUUCCUCCAGGGGAGGGAGAGGGA [ctspaired]”: -0.484. To “GUGGUGUGUGUUGGUAUCUAACACACGCCG [gtspaired]” belongs -0.543; to “UUUUUUUUUUGAGAAGGGAUCCUUCUCCGG [tttttgagapaired]”, -0.134. The same measure for “GGUGGUGGUGUUGGUCCCUAACACCAUCGC [gtspaired]”: -0.448; for “UUUUUUUUUUGAGAGCGACGCGCUCUUCUG [tttttgagapaired]”: 0.425; for “UUUUUUUUUUGAGACUGCUACAGUCUCCUA [tttttgagapaired]”: 0.374. Regarding “UUCCUCUCUCCUCCGAUGGAGGGGGGAGGA [ctspaired]”, the binding signal (log2 fold change) was -0.47. Take “UUUUUUUUUUGAGAGUGACGCACUCUCCAG [tttttgagapaired]”: the binding signal (log2 fold change) is 0.255. In the case of “GUGGUUGGUGUUGGAGCCUAACACCAGCCG [gtspaired]”, the binding signal (log2 fold change) was -0.712. Take “UUUUUUUUUUGAGACCGACUCGGUCUUCUA [tttttgagapaired]”: the binding signal (log2 fold change) was 0.245. To “GUGUGGUGUGUUGGCCCCUAACACAUCGCG [gtspaired]” belongs -0.279. With “GUGGUUGGUGUUGGCUUCUAACACCAGCCG [gtspaired]”, the binding signal (log2 fold change) was -0.853. To “GUUGUGUGUGUUGGCGCCUAACACACGCAG [gtspaired]” belongs -0.408.

Consider “UUUUUUUUUUGAGACGGUGUCCGUCUCCUG [tttttgagapaired]”, for which the binding signal (log2 fold change) worked out at 1. The same measure for “UUUUUUUUUUGAGAUGGCGGCCAUCUUCUG [tttttgagapaired]”: 0.768; for “GGUUGGUGUGUUGGACUCUAACACAUCAGC [gtspaired]”: -0.667. To “UUUUUUUUUUGAGACGGCUACCGUUUCCGG [tttttgagapaired]” belongs 0.517; to “GUGGUUGGUGUUGGCAUCUAACACCAGCCG [gtspaired]”, -0.707; to “UUUUUUUUUUGAGAGCGGGUCGCUCUCCUA [tttttgagapaired]”, 0.151. To “GUGUGUUGUGUUGGAGCCUAACACAACGCA [gtspaired]” belongs -0.444; to “UUUUUUUUUUGAGAGGGAGACCCUCUUCUG [tttttgagapaired]”, 0.395.

In the case of “UUUUUUUUUUGAGAGCGAACCGCUCUCCUA [tttttgagapaired]”, the binding signal (log2 fold change) worked out at 0.237. To “UUUUUUUUUUGAGACGGGAUCUGUCUCCUA [tttttgagapaired]” belongs 0.539; to “UUUUUUUUUUGAGACGGUAGCCGUCUCCUG [tttttgagapaired]”, 0.779; to “GGUGGUGGUGUUGGCGCCUAACACCGCUAC [gtspaired]”, -0.599.

Consider “UUUUUUUUUUGAGACUGCAACAGUCUUCUG [tttttgagapaired]”, for which the binding signal (log2 fold change) is 0.586. The same measure for “GUGGUGUGUGUUGGUUCCUAACACAUACCG [gtspaired]”: -0.736; for “GUUGUGUGUGUUGGACCCUAACACACGCAA [gtspaired]”: -0.167. With “UUUUUUUUUUGAGACCGAAGCGGUCUCCGG [tttttgagapaired]”, the binding signal (log2 fold change) was 0.431. To “UUUUUUUUUUGAGACGGACACUGUCUCCGG [tttttgagapaired]” belongs 0.785; to “GGUGUGUGUGUUGGACUCUAACACAUAUAC [gtspaired]”, -0.738; to “GUGUUGUGUGUUGGCGUCUAACACACAGCA [gtspaired]”, -0.86.

Regarding “GGUGGUUGUGUUGGUCUCUAACACAGCUAC [gtspaired]”, the binding signal (log2 fold change) is -0.87. The same measure for “UUUUUUUUUUGAGACGGGGGCUGUCUUCUA [tttttgagapaired]”: 0.969. To “UUUUUUUUUUGAGACGGUAUCCGUUUCCGG [tttttgagapaired]” belongs 0.529; to “GUGUGUGGUGUUGGUCCCUAACACCAUACA [gtspaired]”, -0.274; to “UUUUUUUUUUGAGACUGGGCCAGUCUCCAG [tttttgagapaired]”, 0.523. The same measure for “UUUUUUUUUUGAGACGGAGACUGUCUCCUA [tttttgagapaired]”: 1.12.

As to “GUUGUGUGUGUUGGCCCCUAACACACACAG [gtspaired]”, the binding signal (log2 fold change) is -0.161. The same measure for “UUUUUUUUUUGAGAAGGGCUCCUUCUCCAG [tttttgagapaired]”: 0.24; for “GUGGUGUGUGUUGGACCCUAACACAUACCG [gtspaired]”: -0.511; for “GUGUGUUGUGUUGGUAUCUAACACAGCGCA [gtspaired]”: -0.672.

Regarding “UUUUUUUUUUGAGAGGGACACCCUCUCCGG [tttttgagapaired]”, the binding signal (log2 fold change) was 0.271. For “UUUUUUUUUUGAGAUGGAUGCCAUCUUCUA [tttttgagapaired]”, the binding signal (log2 fold change) worked out at 0.0268. The same measure for “UUUUUUUUUUGAGAUGGGCUCUAUCUCCAG [tttttgagapaired]”: 0.411. To “GGUGUGUGUGUUGGACCCUAACACAUACAC [gtspaired]” belongs -0.658.

Turning to “GUGUGUUGUGUUGGCCUCUAACACAGCACA [gtspaired]”, the binding signal (log2 fold change) was -0.399. “UUUUUUUUUUGAGAUGGACCCCAUCUCCUA [tttttgagapaired]”: the binding signal (log2 fold change) is 0.459. As for “UUUUUUUUUUGAGAACGUAACGUUCUUCUG [tttttgagapaired]”, the binding signal (log2 fold change) came out at 0.153.

For “UUUUUUUUUUGAGAUCGGGGCGAUCUUCUA [tttttgagapaired]”, the binding signal (log2 fold change) came to 0.461. The same measure for “GUGGUGUGUGUUGGUCUCUAACACACACUA [gtspaired]”: -0.552; for “UUUUUUUUUUGAGAACGGGACGUUCUUCUG [tttttgagapaired]”: 0.304.

As for “UUUUUUUUUUGAGAAGGAGUCCUUCUCCGG [tttttgagapaired]”, the binding signal (log2 fold change) amounted to 0.129.

Consider “UUUUUUUUUUGAGAUGGGGUCCGUCUCCAG [tttttgagapaired]”, for which the binding signal (log2 fold change) turned out to be 0.896. Regarding “UUUUUUUUUUGAGAUGGUAACCAUCUCCGG [tttttgagapaired]”, the binding signal (log2 fold change) was 0.226.

Consider “GGUGGUGGUGUUGGAAUCUAACACCAUCGC [gtspaired]”, for which the binding signal (log2 fold change) is -0.418. With “GUGUGUUGUGUUGGUCCCUAACACAACACG [gtspaired]”, the binding signal (log2 fold change) was -0.628. The same measure for “UUUUUUUUUUGAGACCGGGCCGGUCUCCUG [tttttgagapaired]”: 0.885; for “GUGUGUGGUGUUGGCGCCUAACACCGCAUA [gtspaired]”: -0.515; for “GUGUGUGGUGUUGGCAUCUAACACCAUACA [gtspaired]”: -0.578.

On to “UUUUUUUUUUGAGAGCGAAUCGCUCUUCUA [tttttgagapaired]”, for which the binding signal (log2 fold change) is 0.368. On to “GUGUUGUGUGUUGGCGCCUAACACACAGCG [gtspaired]”, for which the binding signal (log2 fold change) is -0.322.

As to “UUUUUUUUUUGAGAGGGUCUCCCUCUUCUG [tttttgagapaired]”, the binding signal (log2 fold change) is 0.47. To “UUUUUUUUUUGAGAGGGCUCCCCUCUUCUA [tttttgagapaired]” belongs 0.415; to “GGUGUGUGUGUUGGUAUCUAACACAUACGC [gtspaired]”, -0.393; to “UUUUUUUUUUGAGACUGGCACAGUCUUCUA [tttttgagapaired]”, 0.0616. “UUUUUUUUUUGAGACGGCUCCCGUCUCCUG [tttttgagapaired]”: the binding signal (log2 fold change) was 0.966. To “UUUUUUUUUUGAGAGGGUAUCCCUCUCCGG [tttttgagapaired]” belongs 0.313. Consider “UUUUUUUUUUGAGAUGGAGUCUAUCUCCUA [tttttgagapaired]”, for which the binding signal (log2 fold change) was -0.062. The same measure for “UUUUUUUUUUGAGAUGGACUCCAUCUCCAG [tttttgagapaired]”: 0.141; for “UUUUUUUUUUGAGAGGGGCCCCCUCUCCAG [tttttgagapaired]”: 1.09. “UUUUUUUUUUGAGACUGAAUCAGUUUCCGG [tttttgagapaired]”: the binding signal (log2 fold change) was found to be 0.229. To “UUUUUUUUUUGAGAUGGUAACUAUCUUCUA [tttttgagapaired]” belongs 0.0899; to “UUUUUUUUUUGAGAUGGGGGCCAUCUCCGG [tttttgagapaired]”, 0.632; to “UUUUUUUUUUGAGACGGCAACCGUCUCCUA [tttttgagapaired]”, 0.429. Take “GUGGUGUGUGUUGGAAUCUAACACAUACUA [gtspaired]”: the binding signal (log2 fold change) is -0.757.

As for “UUUUUUUUUUGAGAGGGGUGCCCUCUCCAG [tttttgagapaired]”, the binding signal (log2 fold change) was 0.621. The same measure for “UUUUUUUUUUGAGACUGAAGCAGUCUUCUG [tttttgagapaired]”: 0.41. The same measure for “UUUUUUUUUUGAGACUGGAACAGUCUCCAG [tttttgagapaired]”: 0.223.

As for “GUGUGUGGUGUUGGUGUCUAACACCGCAUA [gtspaired]”, the binding signal (log2 fold change) is -0.631.
